Experiments:
M. smegmatis ΔipdAB = test: Cell growth inhibition of M. smegmatis ΔipdAB (mineral glucose liquid medium or agar plates); conditions: HIL 200 mg/l; 37° C.; after 3 days
[1] = test system: 3-ketosteroid 9α-hydroxylase (KSH) activity; conditions: AD 0.5 g/L, strain RG8-37 cell cultures

## 3aα-H-4α(3′-propionic acid)-5α-hydroxy-7aβ-methylhexahydro-1-indanone-δ-lactone [HIL, reference compound]
M. smegmatis ΔipdAB
  growth of ΔipdAB mutant on glucose mineral agar plates: no growth
[1]; HIL 100 mg/L added, in 8 hours
  AD conversion (AD 9α-hydroxylation): 20%
[1]; HIL 100 mg/L
  inhibition of AD 9α-hydroxylation: marked inhibition
